# Where “and” joins values, the source holds several entries; their conditions need not be identical. Equal values may be shown once. This list was built around the results that the source calls inconclusive (neither active nor inactive); the mix of calls is not that of the screen. Potencies beside an inconclusive call are fits to weak or partial responses and may not hold up. Some structures have more than one record in an assay (separate samples or runs), and their calls can disagree. Calls of active or inactive are those of the source. The call rests on the fitted dose curve; in most records, active means well fitted curve in the direction sought with a large enough effect; inconclusive means small, poorly fitted or top-dose-only effect, or another doubt; inactive means no such curve, though single readings can be large; an effect the other way counts as inactive or inconclusive.
# How the values were obtained:
# [1] = Viability qHTS for spleen associated tyrosine kinase inhibitor (SYKi) naive MV4-11 cells (AID 1963823); conditions: MV4-11 AML viability, CellTiter-Glo luminescence, 72 h; viability (% of control): at 45 µM (top of the series); further: nearly all actives have a fitted effect of over 40% in size
# Summary of the method: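 Cells: MV4-11, SYK inhibitor naive, 500 per well. Treatment: library compounds, 72 hr, 37 C, 5% CO2. Read-out: CellTiter-Glo luminescence after 10 min RT.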
# [2] = Viability qHTS for spleen associated tyrosine kinase inhibitor (SYKi) drug resistant MV4-11 cells (AID 1963824); conditions: SYKi-resistant MV4-11 viability, CellTiter-Glo, 72 h; series mostly up to 45 µM; further: nearly all actives have a fitted effect of over 35% in size
# Summary of the method: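 SYK-inhibitor-resistant MV4-11 AML cells were seeded at 500 per well onto compound and cultured 72 hours (37 °C, 5% CO2). CellTiter-Glo was then added, and after 10 min at room temperature, luminescence gave viability.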
# [3] = Quantitative highthroughput screen to assess conditional lethalithy of NOMO1 cells grown in RPMI1640 with untreated serum (RPMI+s) (AID 1963876); conditions: NOMO1 AML cells in RPMI+serum, CellTiter-Glo viability, 48 h; viability: at 45.8 µM (top of the series); further: nearly all actives have a fitted effect of over 35% in size
# Summary of the method: (§1)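 Each medium arm—HPLM with 10% dialyzed FBS, or RPMI1640 with 5 mM glucose and 10% untreated or dialyzed FBS—was screened against an 11-point, 3-fold compound titration for 48 h at 37 °C, with CellTiter-Glo luminescence as endpoint.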
# [4] = Quantitative highthroughput screen to assess conditional lethalithy of NOMO1 cells grown in RPMI1640 with dialyzed fetal bovine serum (RPMI+ds) (AID 1963877); conditions: NOMO1 in RPMI+dialyzed FBS viability, ATP luminescence, 48 h; series mostly up to 45.8 µM; further: nearly all actives have a fitted effect of over 30% in size;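 on Viability: 100% = DMSO control wells and 0% = empty wells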
# Summary of the method: as §1
# [5] = Quantitative highthroughput screen to assess conditional lethalithy of NOMO1 cells grown in Human Plasma-Like Medium with dialyzed fetal bovine serum (HPLM+ds) (AID 1963878); conditions: NOMO1 AML cells in HPLM+ds, CellTiter-Glo viability, 48 h; viability: at 45.8 µM (top of the series); further: nearly all actives have a fitted effect of over 35% in size
# Summary of the method: as §1
# [6] = Quantitative highthroughput screen to assess conditional lethalithy of P12 Ichikawa cells grown in Human Plasma-Like Medium with dialyzed fetal bovine serum (HPLM+ds) (AID 1963879); conditions: ATP luminescence, 48 h; Potency: viability; series mostly up to 45.8 µM; further: nearly all actives have a fitted effect of over 35% in size
# Summary of the method: as §1
# [7] = Quantitative highthroughput screen to assess conditional lethalithy of P12 Ichikawa cells grown in RPMI1640 with dialyzed fetal bovine serum (RPMI+ds) (AID 1963880); conditions: ATP luminescence, 48 h; Potency: P12-Ichikawa viability; series mostly up to 45.8 µM; further: nearly all actives have a fitted effect of over 35% in size
# Summary of the method: as §1
# [8] = Quantitative highthroughput screen to assess conditional lethalithy of P12 Ichikawa cells grown in RPMI1640 with untreated serum (RPMI+s) (AID 1963881); conditions: ATP luminescence, 48 h; Potency: viability; series mostly up to 45.8 µM; further: nearly all actives have a fitted effect of over 35% in size
# Summary of the method: as §1
# [9] = Quantitative highthroughput screen to assess conditional lethalithy of SEM cells grown in Human Plasma-Like Medium with dialyzed fetal bovine serum (HPLM+ds) (AID 1963882); conditions: SEM B-ALL cells in HPLM+ds, CellTiter-Glo viability, 48 h; series mostly up to 45.8 µM; further: nearly all actives have a fitted effect of over 35% in size
# Summary of the method: as §1
# [10] = Quantitative highthroughput screen to assess conditional lethalithy of SEM cells grown in RPMI1640 with unreated serum (RPMI+s) (AID 1963883); conditions: SEM B-ALL cells, CellTiter-Glo viability, 48 h; viability: at 45.8 µM (top of the series); further: nearly all actives have a fitted effect of over 35% in size
# Summary of the method: as §1
# [11] = Cellular viability qHTS for adrenocortical cancer (ACC) cell line SW-13 (AID 1963989); conditions: SW-13 ACC cells viability, CellTiter-Glo, 48 h; activity (max response): stronger effect = lower value; further: nearly all actives have a fitted effect of over 65% in size;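 on activity (max response): cells grown in serum-free medium with ITS supplement; on the % scale 0 is the no-effect control and ±100 the full control effect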
# Summary of the method: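 Luminescent ATP read-out (CellTiter-Glo, 20 min at room temperature) measured metabolically competent SW-13 cells after 48 h compound treatment. Final concentrations spanned up to 46 uM; bortezomib served as positive control.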
# [12] = Cellular viability qHTS for adrenocortical cancer (ACC) cell line NCI-H295R (AID 1963990); conditions: CellTiter-Glo ATP luminescence, 48 h; activity change, negative = viability loss: at 46.1 µM (top of the series); further: nearly all actives have a fitted effect of over 60% in size;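 on activity change, negative = viability loss: 0% = DMSO only wells and -100% = full killing with cytotoxic reference compound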
# Summary of the method: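 IC50 and maximal efficacy derive from four-parameter logistic modelling of titration curves, with reads scaled between DMSO-only wells (0%) and doxorubicin hydrochloride (100% inhibition). Compounds spanned up to 46 uM over 48 h.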
# [13] = Quantitative highthroughput screen to assess conditional lethalithy of SEM cells grown in RPMI1640 with dialyzed fetal bovine serum (RPMI+ds) (AID 1963884); conditions: SEM B-ALL cells, RPMI+dialyzed FBS, CellTiter-Glo viability, 48 h; viability: at 45.8 µM (top of the series); further: nearly all actives have a fitted effect of over 35% in size
# Summary of the method: as §1
# Potency means the concentration at half of the fitted maximal effect; tags describe the fitted curve by direction and shape.
Compound,Potency [1],Potency [2],Potency [3],Potency [4],Potency [5],Potency [6],Potency [7],Potency [8],Potency [9],Potency [10],activity (max response) [11],Potency [12],Potency [13],Potency [11]
C[C@@H]1CC(=O)NN=C1c1ccc(NN=C(C#N)C#N)cc1,"inconclusive: 15 µM [cytotoxic, single point] and inconclusive: 14.8 µM [cytotoxic, partial curve, poor fit]","active: 15 µM and inconclusive: 15 µM [cytotoxic, partial curve, poor fit] and inconclusive: 13.2 µM [cytotoxic, partial curve, poor fit]","inconclusive: 26.4 µM [cytotoxic, single point]","inconclusive: 33.2 µM [cytotoxic, single point]","inconclusive: 33.2 µM [cytotoxic, single point]","inconclusive: 33.2 µM [cytotoxic, single point]",active: 26.4 µM,"inconclusive: 26.4 µM [cytotoxic, single point]",active: 18.7 µM,"inconclusive: 13.2 µM [cytotoxic, partial curve, poor fit]",inactive: -17.4% and inactive: 2.94% and inactive: -32.7%,"inconclusive: 9.2 µM [cytotoxic, partial curve, poor fit] and inconclusive: 23.1 µM [cytotoxic, partial curve, poor fit] and inactive",–,–
CCNC(=O)c1noc(-c2cc(C(C)C)c(O)cc2O)c1-c1ccc(CN2CCOCC2)cc1,"inconclusive: 7.3 nM [cytotoxic, full curve] and inconclusive: 7.4 nM [cytotoxic, full curve]","inconclusive: 0.0105 µM [cytotoxic, full curve]",active: 0.0833 µM,active: 0.0833 µM,"inconclusive: 0.0743 µM [cytotoxic, full curve]","inconclusive: 0.105 µM [cytotoxic, full curve]","inconclusive: 0.0935 µM [cytotoxic, full curve]","inconclusive: 0.0833 µM [cytotoxic, full curve]",–,active: 0.0418 µM,–,"inconclusive: 0.0447 µM [cytotoxic, full curve]","inconclusive: 0.0418 µM [cytotoxic, full curve]",active: 0.0708 µM
CCOC(=O)[C@H](CCc1ccccc1)N[C@H]1CCc2ccccc2N(CC(=O)O)C1=O,"inconclusive: 29.9 µM [cytotoxic, single point] and inconclusive: 18.6 µM [cytotoxic, partial curve]","inconclusive: 33.5 µM [cytotoxic, single point] and active: 16.6 µM","inconclusive: 33.2 µM [cytotoxic, single point]","inconclusive: 29.6 µM [cytotoxic, single point]",active: 16.6 µM,"inconclusive: 37.2 µM [cytotoxic, single point]","inconclusive: 33.2 µM [cytotoxic, single point]","inconclusive: 33.2 µM [cytotoxic, single point]","inconclusive: 20.9 µM [cytotoxic, single point]","inconclusive: 33.2 µM [cytotoxic, single point]",–,"inconclusive: 2.91 µM [cytotoxic, partial curve, poor fit]",–,"inconclusive: 18.4 µM [cytotoxic, single point]"
OCCNC1CCCc2c1[nH]c1ccc(-c3ccccc3)cc21 (stereo unspecified),active: 8.33 µM,active: 8.33 µM,"inconclusive: 29.6 µM [cytotoxic, single point]","inconclusive: 26.4 µM [cytotoxic, single point]",active: 23.5 µM,active: 20.9 µM,"inconclusive: 18.7 µM [cytotoxic, partial curve]",active: 18.7 µM,–,–,–,active: 7.08 µM,"inconclusive: 18.7 µM [cytotoxic, partial curve]",active: 15.8 µM
COc1cc(Oc2ccnc3cc(OC)c(OC)cc23)ccc1NC(=O)NC(C)c1nccs1 (stereo unspecified),inactive and active: 7.42 µM,"inconclusive: 6.51 µM [cytotoxic, single point]","inconclusive: 37.2 µM [cytotoxic, single point]","inconclusive: 37.2 µM [cytotoxic, single point]","inconclusive: 23.5 µM [cytotoxic, single point]","inconclusive: 33.2 µM [cytotoxic, single point]","inconclusive: 33.2 µM [cytotoxic, single point]","inconclusive: 29.6 µM [cytotoxic, single point]","inconclusive: 29.6 µM [cytotoxic, single point]",–,inactive: 0.628%,"inconclusive: 20 µM [cytotoxic, partial curve]","inconclusive: 33.2 µM [cytotoxic, partial curve]",–
CC(C)C[C@H](CC(=O)O)C(=O)N[C@@H](Cc1c[nH]c2ccccc12)C(=O)N[C@@H](C)c1ccccc1,"inconclusive: 11.8 µM [rising, single point]","inconclusive: 37.2 µM [cytotoxic, single point]","inconclusive: 18.7 µM [cytotoxic, partial curve]","inconclusive: 37.2 µM [cytotoxic, single point]","inconclusive: 14.8 µM [cytotoxic, partial curve]","inconclusive: 8.33 µM [cytotoxic, partial curve]","inconclusive: 14.8 µM [cytotoxic, partial curve]","inconclusive: 9.35 µM [cytotoxic, partial curve]","inconclusive: 14.8 µM [cytotoxic, partial curve, poor fit]","inconclusive: 6.62 µM [cytotoxic, partial curve, poor fit]",–,inactive,"inconclusive: 11.8 µM [cytotoxic, full curve, poor fit]",–
Cn1c(=O)c(Oc2ccc(F)cc2F)cc2cnc(NC3CCOCC3)nc21,"inconclusive: 0.731 µM [cytotoxic, full curve, poor fit]","inconclusive: 10.3 µM [cytotoxic, partial curve, poor fit]","inconclusive: 37.2 µM [cytotoxic, single point]","inconclusive: 37.2 µM [cytotoxic, single point]","inconclusive: 6.62 µM [cytotoxic, partial curve, poor fit]","inconclusive: 37.2 µM [cytotoxic, single point]","inconclusive: 29.6 µM [cytotoxic, single point]","inconclusive: 37.2 µM [cytotoxic, single point]","inconclusive: 37.2 µM [cytotoxic, single point]","inconclusive: 37.2 µM [cytotoxic, single point]",–,inactive,"inconclusive: 37.2 µM [cytotoxic, single point]",–
Nc1ncnc2c1c(-c1cnc3[nH]ccc3c1)nn2C1CCCC1,active: 920 nM and active: 590 nM,active: 1.16 µM and active: 1.18 µM,"inconclusive: 2.96 µM [cytotoxic, full curve]","inconclusive: 2.09 µM [cytotoxic, full curve]","inconclusive: 6.62 µM [cytotoxic, partial curve]","inconclusive: 6.62 µM [cytotoxic, partial curve]",active: 1.48 µM,"inconclusive: 1.66 µM [cytotoxic, full curve]",active: 5.26 µM,–,–,–,active: 5.9 µM,active: 5.01 µM
Cc1nc(N)sc1-c1ccnc(Nc2ccc(N3CCOCC3)cc2)n1,"inconclusive: 0.118 µM [cytotoxic, full curve]","active: 164 nM and inconclusive: 186 nM [cytotoxic, full curve]","inconclusive: 3.32 µM [cytotoxic, full curve, poor fit]","inconclusive: 3.32 µM [cytotoxic, full curve]",active: 4.18 µM,"inconclusive: 2.64 µM [cytotoxic, full curve]","inconclusive: 2.96 µM [cytotoxic, full curve]","inconclusive: 3.32 µM [cytotoxic, full curve]","inconclusive: 2.35 µM [cytotoxic, full curve]",–,–,inactive,–,–
CN1CCc2c(n(Cc3ccc(C(=O)NO)cc3)c3ccccc23)C1,"inconclusive: 29.1 µM [cytotoxic, single point] and inconclusive: 23.5 µM [cytotoxic, partial curve]","inconclusive: 20.6 µM [cytotoxic, single point]","inconclusive: 37.2 µM [cytotoxic, single point]",inactive,"inconclusive: 26.4 µM [cytotoxic, single point]","inconclusive: 26.4 µM [cytotoxic, single point]","inconclusive: 33.2 µM [cytotoxic, single point]","inconclusive: 37.2 µM [cytotoxic, single point]",active: 26.4 µM,–,–,active: 25.1 µM,"inconclusive: 37.2 µM [cytotoxic, single point]","inconclusive: 35.5 µM [cytotoxic, single point]"
